Measured values as given in US20070072177A1 (CRUCELL HOLLAND B V, published 2007).

Target: T1, glycoprotein of rabies virus strain CVS-11 (rabies virus strain CVS-11, UniProt O92284 20-524)
T1 sequence: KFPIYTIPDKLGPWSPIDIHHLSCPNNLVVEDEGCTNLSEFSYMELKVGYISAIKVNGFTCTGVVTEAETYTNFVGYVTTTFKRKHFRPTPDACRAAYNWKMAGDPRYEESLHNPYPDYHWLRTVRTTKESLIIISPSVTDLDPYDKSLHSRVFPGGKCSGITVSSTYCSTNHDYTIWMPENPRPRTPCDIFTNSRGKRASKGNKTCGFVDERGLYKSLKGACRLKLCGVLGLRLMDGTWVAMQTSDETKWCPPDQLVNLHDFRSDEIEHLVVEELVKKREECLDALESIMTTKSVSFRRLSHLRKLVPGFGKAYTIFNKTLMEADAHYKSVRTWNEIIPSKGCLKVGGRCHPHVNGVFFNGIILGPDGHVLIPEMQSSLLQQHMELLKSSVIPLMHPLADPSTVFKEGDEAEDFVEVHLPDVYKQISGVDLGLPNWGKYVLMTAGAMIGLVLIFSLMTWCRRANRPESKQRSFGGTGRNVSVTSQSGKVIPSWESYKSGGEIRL
Assay: cell-based or functional assay

B1: SC04-004 (scFv)
scFv: SMAEVQLVESGGGLVQPGGSLRLSCAASGFTFSNYWMNWVRQAPGKGLEWVSAISGSGGSTYYADSVKGRFTISRDNSKNTLYLQMNSLRAEDTAVYYCAKDYLYPTTDFDYWGQGTLVTVLEGTGGSGGTGSGTGTSELTQSPSSLSASVGDRVTIT[about 80 residues not given here]FGQGTKVEIKRAAA
For B1, the “Potency (IU/ml)” value was 18 IU/ml.
